Test results taken from the supplement of paper PMC4967469.
Lines with a small IC50 respond at low doses; fits outside the tested doses are given as limits. AUC is the area under the same curve over the 256-fold range up to the top dose, as a fraction: 1 means no effect, lower means more sensitive. For some of these results: The top dose, if marked as inferred, is not printed in the source and was worked back from the curve model. For some of these results: Drugs with an entry number were screened twice under separate entries, and the two screens often disagree.

Assays:
Test in all cases: Viability of human cancer cell lines after 72 h of drug (GDSC screen)
[1] = compound: CCCS(=O)(=O)Nc1ccc(F)c(C(=O)c2c[nH]c3ncc(Cl)cc23)c1F [PLX4720]; conditions: top dose 10 µM
Description: (§1)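 Human cancer cell lines in 384-well plates, medium with 10% serum, drug for 72 h over a 256-fold dose range (nine 2-fold or five 4-fold steps up to the top dose). Adherent lines were fixed and stained with the nucleic acid dye Syto60, suspension lines read with resazurin; signal relative to control wells, capped at 0 and 100%. One two-parameter sigmoid per drug and line, fitted in a mixed model over all curves with the slope shared within a line.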

[2] = compound: CC(C)CC(=O)Nc1n[nH]c2c1CN(C(=O)C1CCN(C)CC1)C2(C)C [PHA-793887]; conditions: top dose 10.24 µM
Description: as §1

[3] = compound: C/C(=C\c1csc(C)n1)[C@@H]1C[C@@H]2O[C@]2(C)CCC[C@H](C)[C@H](O)[C@@H](C)C(=O)C(C)(C)[C@@H](O)CC(=O)O1 [Epothilone B]; conditions: top dose 0.032 µM; top dose inferred
Description: as §1

[4] = compound: C[C@@H](N)c1ccc(C(=O)Nc2ccnc3[nH]ccc23)cc1 [Y-39983]; conditions: top dose 20 µM; top dose inferred
Description: as §1

[5] = compound: NC(=O)Nc1sc(-c2ccc(F)cc2)cc1C(N)=O [TPCA-1]; conditions: top dose 20 µM
Description: as §1

[6] = screen: GDSC drug entry 1371, top dose inferred

Cell Line	AUC ([1]; screen: GDSC drug entry 1036)	IC50 ([1]; screen: GDSC drug entry 1036) [µM]	AUC [1, 6]	IC50 [1, 6] [µM]	AUC [2]	IC50 [2] [µM]	AUC [3]	IC50 [3] [µM]	AUC [4]	IC50 [4] [µM]	AUC [5]	IC50 [5] [µM]
MDA-MB-436 (breast, adherent)	0.975	> 10	0.959	> 10	0.97	> 10.2	0.785	0.0176	0.944	> 20	0.939	> 20
MDA-MB-453 (breast, adherent)	0.976	> 10	0.983	> 10	0.793	5.27	0.908	> 0.032	0.986	> 20	0.953	> 20
MDA-MB-468 (breast, adherent)	0.988	> 10	0.987	> 10	0.576	1.03	0.497	0.00196	0.972	> 20	0.876	18.7
ME-180 (cervix, adherent)	0.964	> 10	0.977	> 10	0.661	1.83	0.706	0.00787	0.972	> 20	0.666	3.7
MEL-JUSO (melanoma, adherent)	0.965	> 10	0.976	> 10	0.866	> 10.2	0.373	0.000855	0.919	> 20	0.723	5.83
MES-SA (uterus, adherent)	0.992	> 10	0.99	> 10	0.942	> 10.2	0.536	0.00247	0.992	> 20	0.992	> 20
MFE-280 (endometrium, adherent)	0.975	> 10	0.98	> 10	0.885	> 10.2	0.89	> 0.032	0.982	> 20	0.782	10.8
MFE-296 (endometrium, adherent)	0.982	> 10	0.981	> 10	0.925	> 10.2	0.587	0.00352	0.983	> 20	0.932	> 20
MFE-319 (endometrium, adherent)	0.922	> 10	0.987	> 10	0.96	> 10.2	0.35	0.00078	0.989	> 20	0.98	> 20
MG-63 (osteosarcoma, adherent)	0.984	> 10	–	–	0.982	> 10.2	0.244	0.00032	0.982	> 20	0.983	> 20
MHH-ES-1 (Ewing sarcoma, adherent)	0.979	> 10	0.976	> 10	0.517	0.712	0.391	0.00101	0.91	> 20	0.641	3.05
